The campaign covered roughly 310,000 compounds. About 2,200 (0.71%) showed an effect of 50% or more. Effects have a minus sign here. The list shows a part of the results.
Molecular target: human ether-à-go-go-related gene (hERG) potassium channel (human, UniProt Q12809)
Experiment: primary screen, population patch clamp on CHO cells stably expressing hERG

human ether-à-go-go-related gene (hERG) potassium channel, sequence (Q12809 whole entry, looked up): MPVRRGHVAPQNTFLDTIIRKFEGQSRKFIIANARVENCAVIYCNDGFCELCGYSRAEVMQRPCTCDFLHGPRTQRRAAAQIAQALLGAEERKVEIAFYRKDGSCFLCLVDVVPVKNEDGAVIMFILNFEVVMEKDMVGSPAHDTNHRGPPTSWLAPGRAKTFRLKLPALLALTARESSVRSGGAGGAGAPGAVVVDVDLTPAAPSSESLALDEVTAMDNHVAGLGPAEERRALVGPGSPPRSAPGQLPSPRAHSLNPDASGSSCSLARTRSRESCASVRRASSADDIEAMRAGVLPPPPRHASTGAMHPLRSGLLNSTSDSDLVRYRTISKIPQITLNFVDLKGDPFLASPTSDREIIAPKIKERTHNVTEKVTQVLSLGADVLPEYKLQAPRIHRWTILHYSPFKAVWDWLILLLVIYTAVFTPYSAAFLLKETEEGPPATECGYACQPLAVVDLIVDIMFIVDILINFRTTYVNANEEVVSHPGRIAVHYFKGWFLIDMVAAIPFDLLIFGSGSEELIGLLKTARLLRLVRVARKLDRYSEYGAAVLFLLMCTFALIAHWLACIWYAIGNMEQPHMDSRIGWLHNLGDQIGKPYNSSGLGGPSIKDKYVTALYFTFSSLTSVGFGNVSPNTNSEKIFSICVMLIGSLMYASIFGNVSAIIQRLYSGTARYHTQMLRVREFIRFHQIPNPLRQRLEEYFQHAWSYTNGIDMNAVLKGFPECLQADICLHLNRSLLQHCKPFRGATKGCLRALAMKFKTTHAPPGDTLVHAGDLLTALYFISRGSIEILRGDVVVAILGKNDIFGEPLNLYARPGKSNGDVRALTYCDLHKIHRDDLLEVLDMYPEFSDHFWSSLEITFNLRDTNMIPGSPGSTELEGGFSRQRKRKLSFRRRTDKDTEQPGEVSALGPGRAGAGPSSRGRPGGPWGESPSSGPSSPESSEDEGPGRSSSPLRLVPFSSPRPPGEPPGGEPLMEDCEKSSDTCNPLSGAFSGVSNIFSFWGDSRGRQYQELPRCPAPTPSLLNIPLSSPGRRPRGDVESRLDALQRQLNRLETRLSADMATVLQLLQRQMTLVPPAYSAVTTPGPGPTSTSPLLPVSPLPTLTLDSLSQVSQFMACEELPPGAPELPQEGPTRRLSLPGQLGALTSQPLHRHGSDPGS

Row | SMILES | hERG current change (%, negative = inhibition) at 1uM
1 | Cc1nc2ccccc2c(=O)n1CCCO | 10.1%
2 | Cc1cccc(-c2noc(CNC(=O)c3ccoc3C)n2)c1 | 8.65%
3 | Cc1ccnc(NS(=O)(=O)c2ccc(Cl)nc2)c1 | 3.4%
4 | COCCNC(=O)CN1C(=O)NC(c2ccccc2)(c2ccccc2)C1=O | 5.18%
5 | O=C1CC2(CCCC2)C(=O)N1CN1CCN(S(=O)(=O)c2ccc(Cl)c(Cl)c2)CC1 | 4.47%
6 | COc1ccc(N(C)S(=O)(=O)c2ccc3c(c2)CC(C)N3C(=O)C2CC2)c(OC)c1 (stereo not shown) | 9.16%
7 | O=[N+]([O-])c1ccc2nc(Cl)nc(-c3ccccc3)c2c1 | -2.52%
8 | Cc1nn(CCC#N)c(C)c1Oc1ccccc1O | 11%
9 | O=C(CCC1N=C2c3ccccc3N=C(SCc3cccc(Cl)c3)N2C1=O)NCc1ccco1 (stereo not shown) | 3.46%
10 | CC(Sc1nncs1)C(=O)NCC(=O)Nc1ccc(F)c(F)c1F (stereo not shown) | 12.7%
11 | Cc1ccc(C(=O)NNC(=O)c2ccc(NC(=O)C(C)(C)C)cc2)cc1 | 11.1%
12 | Cc1ccc(OCc2nnc(SCC(=O)c3ccccc3)n2-c2ccccc2)cc1 | 10.1%
13 | CNS(=O)(=O)c1ccc(N2CCCC2=O)c([N+](=O)[O-])c1 | -3.75%
14 | O=C(Cn1nnc(-c2ccccc2NC(=O)C2CC2)n1)NC1CCCCC1 | 7.76%
15 | Cc1[nH]nc2c1C1(CCN(Cc3ccccc3)CC1)C(C#N)=C(N)O2 | -24.5%
16 | CCOC(=O)C1=C(c2ccccc2)N=C2SCC(=O)N2C1c1ccc(O)c(OC)c1 (stereo not shown) | 9.75%
17 | CC(=O)NC(c1cc(F)c2cccnc2c1O)C1CC1 (stereo not shown) | 1.05%
18 | Cc1ccn2c(CNCc3cnn(C)c3)c(C(=O)N3CCCCCC3)nc2c1 | 5.85%
19 | C[C@H](NC(=O)c1nc[nH]c1C(=O)NCC(=O)OCc1ccccc1)C(=O)OCc1ccccc1 | 7.04%
20 | CCOc1ccc2nc(SCc3ccc(CC(=O)O)cc3)c(C#N)cc2c1 | 13.4%
21 | O=C(NCc1cccnc1)/C(=C\c1ccc(-c2ccc(Cl)c(Cl)c2)o1)S(=O)(=O)c1ccccc1 | 7.52%
22 | CCCS(=O)(=O)c1nc(S(=O)(=O)c2ccc(C)cc2)c(NCCCn2ccnc2)s1 | 0.344%

Row | SMILES | hERG current change (%, negative = inhibition) at 1uM
23 | COc1ccccc1Nc1nc(N)nc(CSc2nnc(C)s2)n1 | 11.9%
24 | COC(=O)c1cccc(NC(=O)Cn2cnc3c2c(=O)n(C)c(=O)n3C)c1 | 12.3%
25 | COc1cc(NC(=O)CNC(=O)Cn2c(C)cc3ccccc3c2=O)cc(OC)c1OC | 23.8%
26 | CCN(CC)S(=O)(=O)c1cccc(-c2n[nH]c(=S)n2/N=C/c2ccc(OC)cc2)c1 | 18.5%
27 | Cc1ccc(C2(c3ccccc3)NC(=O)N(CC(=O)NCc3ccccc3)C2=O)cc1C (stereo not shown) | 1.78%
28 | Nc1ccc(Oc2ccc3nc(-c4ccccc4)c(-c4ccc([N+](=O)[O-])cc4)nc3c2)cc1 | 2.87%
29 | CC(C)CC(=O)NC(=S)Nc1ccc(N2CCCC2)c(Cl)c1 | 13.8%
30 | CCc1nn2c(=O)c(S(=O)(=O)Nc3ccc(Cl)cc3)c(C)nc2s1 | 0.74%
31 | COc1ccc(NC2=NC3(CCCCC3)N=C(N)N2)cc1 | 5.3%
32 | Cc1ccc(S(=O)(=O)N2CCOCC2)cc1C(=O)N1CCC(Cc2ccccc2)CC1 | 11.2%
33 | CCc1noc(C)c1C(=O)Nc1ccc(S(=O)(=O)N2CCCC(C)C2)cc1 (stereo not shown) | 2.28%
34 | Cc1ccc(C)c(NC(=O)C2CC(Cl)=CCC2C(=O)O)c1 (stereo not shown) | 12.1%
35 | O=C1CN(C(=O)CSc2nc3cc(Cl)ccc3c(=O)n2Cc2ccccc2)c2ccccc2N1 | 4.34%
36 | O=C(CN1C(=O)CSc2ccc(S(=O)(=O)N3CCOCC3)cc21)NCCCN1CCCCC1 | 15%
37 | CN1CCN(C(=S)c2cn(CCOc3ccccc3F)c3ccccc23)CC1 | 5.13%
38 | CC(=O)NC1c2ccccc2C(=O)N1Cc1ccccc1 (stereo not shown) | 8.91%
39 | CCOC(=O)C1(C(=O)OCC)CC1c1ccccc1 (stereo not shown) | 6.22%
40 | O=CNc1ccc(S(=O)(=O)NCc2ccccc2)cc1 | -0.826%
41 | CCN(Cc1ccccc1)C(=O)CN1C(=S)NC(C)(C)CC1C (stereo not shown) | 3.12%
42 | CC(=O)N(C)c1ccc(NC(=O)c2ccc([N+](=O)[O-])cc2Cl)cc1 | 7.8%
43 | Cc1cccc(C)c1NC(=O)C1(NC(=O)c2cnccn2)CCCCC1 | 17.1%
44 | COc1ccccc1NC(=O)C(C)N1C(=O)C2CCCCC2C1=O (stereo not shown) | 5.03%

Row | SMILES | hERG current change (%, negative = inhibition) at 1uM
45 | O=C(N/N=C/c1cccc(OC(=O)c2ccco2)c1)c1ccc(F)cc1 | -5.05%
46 | COc1ccc(CCN2C(=O)CSC2=Nc2ccc(C)cc2C)cc1OC | 13.7%
47 | COc1ccc(N2C(=O)C3CCCN3C2c2cc(OC)c(OC)cc2OC)cc1 (stereo not shown) | 0.767%
48 | CCOc1ccc(NC(=O)CN(C)C(=O)c2cc(-c3ccc(OC)cc3)nc3ccccc23)cc1OCC | -6.94%
49 | CCOC(=O)c1c(NC(=O)CN2CCN(c3ccc(Cl)cc3)CC2)sc(C)c1C | 7.11%
50 | NC1=NC(=O)C2(COC(c3cccnc3)OC2)S1 (stereo not shown) | 14.7%
51 | Cc1ccc(CNc2cccnc2)cc1 | 14.4%
52 | COc1cc(/C=C(/NC(=O)c2ccccc2Cl)C(=O)O)cc(OC)c1OC | 20.3%
53 | CN(C(=O)COC(=O)c1cc2c(s1)CCCCC2)C1CCS(=O)(=O)C1 (stereo not shown) | -2.75%
54 | O=C(O)c1cc2c(ccc3ccccc32)o1 | 9.92%
55 | CCC(C)C(=O)N1CCCC(c2nc(-c3cccs3)no2)C1 (stereo not shown) | 9.89%
56 | CC(C)c1c(C(=O)N/N=C/c2cccc(OCc3ccccc3)c2)nnn1-c1nonc1N | 26.9%
57 | O=C(N/N=C/c1ccc(OCc2ccc(F)cc2)cc1)c1ccccc1 | -2.12%
58 | CCOC(=O)Cn1c2c(c(=N)c3c1CCC3)CCCC2.Cl | 12.8%
59 | COc1ccc(C/C(N)=N/OC(=O)c2cccc([N+](=O)[O-])c2)cc1 | -20%
60 | CC(C)COP(=O)(c1ccc(N(C)C)cc1)C(O)c1ccc(N(C)C)cc1 (stereo not shown) | 13%
61 | O=C(NCc1ccccn1)c1cn(CCc2ccccc2)nn1 | 13%
62 | O=C(Nc1nccs1)c1cc2sccc2n1Cc1ccc(F)cc1 | -1.3%
63 | COc1ccccc1CN1C(=O)c2ccncc2C1=O | -7.04%
64 | CCOC(=O)C1=C(C)N=c2s/c(=C\c3ccc(C(=O)O)cc3)c(=O)n2C1c1ccc(OC)cc1OC (stereo not shown) | 11.8%
65 | CCCCNC(=O)c1ccccc1NC(=O)CN(c1ccccc1)S(=O)(=O)N(C)C | 7.01%
66 | COc1cccc(NC(=O)Nc2ccccc2C(N)=O)c1 | 4.54%

Row | SMILES | hERG current change (%, negative = inhibition) at 1uM
67 | O=C(O)C1CCCCC1C(=O)Nc1cc(Cl)ccc1Cl (stereo not shown) | 18.4%
68 | COc1ccc(/C=N/Nc2cc(C)nc(NS(=O)(=O)c3ccc(C)cc3)n2)cc1 | 0.0432%
69 | O=C(OCC(O)COC(=O)c1cccnc1)c1cccnc1 | 15.2%
70 | Cc1ccc(C(=O)NNC(=O)COc2ccc(Cl)cc2C)o1 | -4.39%
71 | Cc1ccc(C)c(N2N=C(C(=O)OCc3nnc(-c4ccccc4)o3)CCC2=O)c1 | 5.14%
72 | Cc1cccc(N2CCN(S(=O)(=O)c3c(C)[nH]c(C)c3C(=O)N3CCCCC3)CC2)c1C | 5.05%
73 | O=C(COc1ccc(-n2cnnn2)cc1)NC(=O)NCc1ccccc1 | 3.62%
74 | CCN(CC)S(=O)(=O)c1cccc(-c2nnc(SCCCC(=O)c3ccccc3)o2)c1 | 3.3%
75 | Cc1cnc(C(=O)Nc2ccc3c(c2)CCC3)cn1 | 10.7%
76 | Cc1cccc(C)c1OCC(O)CNC(C)(C)C.Cl (stereo not shown) | 11.6%
77 | Cc1ccc(C)c(NC(=O)Nn2cnnc2)c1 | 12.2%
78 | O=[N+]([O-])c1ccc(N2CCCCC2)cc1N1CCOCC1 | 2.47%
79 | CC(Oc1ccc(Cl)cc1Cl)C(=O)NNC(=O)C(=O)N1CCCC1 (stereo not shown) | 16%
80 | Cc1cccc(-c2nnc(SCC(=O)Nc3ncccn3)n2C)c1 | 8.58%
81 | Cc1cccc(C(=O)N2CCN(c3ccccn3)CC2)c1 | 11.7%
82 | CCOC(=O)c1ccc(NC(=O)C2C3C=CC(O3)C2C(=O)O)cc1 (stereo not shown) | 16.8%
83 | Cc1c(C(=O)CN2CCCC(C)(C)C2)c2ccccc2n1C | 8.16%
84 | Br.Cn1c(=N)n(CC(=O)C(C)(C)C)c2ccccc21 | -11%
85 | O=C(Nc1ccc2ncccc2c1)c1ccccc1 | 11.5%
86 | CC1(C)C/C(=N/Nc2ccc([N+](=O)[O-])cc2[N+](=O)[O-])C(C)(C)O1 | 10.6%
87 | O/N=C1\CCCc2nnc3c(c21)CCCC3 | 13%
88 | Cc1ccc(S(=O)(=O)N2CCCCC2C(=O)N(C)c2ccccc2)cc1 (stereo not shown) | 5.34%

Source: PMC4336329 (PLoS ONE, 2015)
